In PubChem BioAssay AID743279 (National Center for Advancing Translational Sciences (NCATS), 2014):
Hit rate of the full screen: of about 360,000 compounds, about 17,000 (4.7%) were called active. Inconclusive means that the source gave no clear call. Such entries were picked first, then a sample of the others. Rule as the data show it: active = activity change below about -50%; inconclusive = mostly about -30% to -49%; inactive = weaker than that.
% is scaled to controls: 0 for no effect and ±100 for the full control effect.

Assay: qHTS for Inhibitors of Inflammasome Signaling: IL-1-beta AlphaLISA Primary Screen
Settings: THP-1 LPS/ATP IL-1B secretion, 16 h; at 57.5 µM, stronger effect = lower value
Procedure, shortened: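 THP-1 cells pretreated 1 hr with compounds (up to 57.5 uM final), then stimulated with LPS (250 ng/mL final) plus ATP (1.25 mM final); secreted IL-1B measured by AlphaLISA after 16 hr, decreased signal indicating inhibition.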
With `O=C1NC[C@@H](CCCCN2C[C@H](Cc3ccc(O)cc3)N(CCc3ccc(O)cc3)C(=O)C2=O)N(Cc2ccccc2)C1=O` the activity change was inactive: -2.84%.
For `COc1ccc2nc(C)cc(Nc3ccc(C)cc3)c2c1`, the activity change was inconclusive: -45.3%.
For `CC1CN(CC(=O)Nc2nc(-c3ccc(Cl)cc3)cs2)CC(C)O1` (centres undefined), the activity change was inconclusive: -31.4%.
For `Cc1ccc(-n2c(N)c(C(=O)Nc3ccccc3F)sc2=S)cc1C`, the activity change was active: -54.4%.
In the case of `CN1CCN(C(=O)/C(=C\c2cccs2)NC(=O)c2ccco2)CC1`, the activity change is reported as inactive: 1.95%.
With `O=C(CCSc1ccc(Cl)cc1)NC12CC3CC(CC(C3)C1)C2` the activity change was inconclusive: -31%.
With `CC(=O)Nc1cc(-c2ccccc2)cn2c(-c3ccc(F)cc3)cnc12` the activity change was inconclusive: -30.8%.
In the case of `S=C(Nc1cccc(Cl)c1)N1CCN(Cc2ccccc2)CC1`, the activity change is reported as inactive: 6.62%.
In the case of `Cc1cccc(C)c1OCC(O)CNC(C)c1ccccc1` (centres undefined), the activity change is reported as inconclusive: -30.9%.
For `CCOC(=O)COc1ccc(S(=O)(=O)NCc2ccncc2)cc1`, the activity change was inactive: -27.3%.
With `Cc1ccccc1OCC(=O)N(Cc1nc(-c2ccccc2)no1)C(C)C` the activity change was inconclusive: -44.2%.
In the case of `CCN(CC)CCn1c(NCc2nc3ccccc3n2Cc2ccccc2)nc2ccccc21`, the activity change is reported as active: -58.6%.
With `CCOC(=O)c1ccc(NC(=O)c2ccccc2)cc1` the activity change was inconclusive: -36.7%.
With `Cc1ccc(C(=O)c2cc(C)sc2N)cc1` the activity change was inactive: -19.8%.
For `COc1ccc(C(=O)N/N=C/c2ccc(OC)c(COc3ccccc3)c2)cc1`, the activity change was inconclusive: -49.1%.
With `COc1cc(-c2nc(-c3ccccc3)c(-c3cccs3)[nH]2)cc(OC)c1OC` the activity change was inconclusive: -32.8%.
In the case of `CCCCCC1CC(=O)NC1(C(=O)OCC)C(=O)OCC` (centres undefined), the activity change is reported as active: -64%.
With `O=C(Nc1ccc(OC(F)(F)F)cc1)c1ccc2c(c1)no[n+]2[O-]` the activity change was active: -96.1%.
In the case of `COc1ccc(OCc2nnc(SCC(=O)N3CCCc4ccccc43)n2-c2ccc(C)cc2)cc1`, the activity change is reported as inconclusive: -30.6%.
For `Cc1ccccc1C(=O)NC(=S)Nc1ccccc1[N+](=O)[O-]`, the activity change was inconclusive: -43.3%.
In the case of `C=CC[C@@H](CC(=O)N(CCO)Cc1ccccc1)C(=O)N[C@H](COC(=O)[C@@H](CC=C)CC(=O)OC(C)(C)C)C(C)(C)C`, the activity change is reported as active: -58.3%.
For `COc1ccc(Nc2nc(N3CCN(C)CC3)nc3ccccc23)c(OC)c1`, the activity change was inconclusive: -43.1%.
For `O=C(CN1C(=O)C2CC=CCC2C1=O)NCC1COc2ccccc2O1` (centres undefined), the activity change was inactive: 13.9%.
In the case of `CCOC(=O)c1c(-c2ccc(F)cc2)csc1/N=C/N(C)C`, the activity change is reported as active: -87.2%.
